# Measured values published in PubChem BioAssay AID1963576 (National Center for Advancing Translational Sciences (NCATS), 2024).
# Among all 46,000 compounds or so, about 60 (0.1%) were called active. Not shown: some 3% with an inconclusive outcome. Calls come from the whole dose curve; as a rule, active = well fitted inhibition curve with a large enough effect; inconclusive = small, poorly fitted or top-dose-only effect; inactive = no such curve, though single readings can be large or run the other way. This is one part of the list.
# Experiment: Primary qHTS assay for Inhibitors of ovarian cancer metastasis using an organotypic tumor microenvironment (TME) model.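 For activity change, negative = inhibition: plate controls were DMSO wells for no effect and tomatine positive control wells for full effect.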 Note: nearly all actives have a fitted effect of over 65% in size.
# Conditions: SKOV3ip1-GFP adhesion/invasion on 3D omental model, fluorescence; series mostly up to 45.8 µM; activity change, negative = inhibition: at the top concentration
# How it was run: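 Adhesion/invasion was scored as fixed GFP-labeled SKOV3ip1 cell counts (488/509 nm), normalized to DMSO and tomatine controls. Cancer cells in serum-free medium, with four compound doses (0.36-46 umol/L), sat 2 hr at RT then 16 hr at 37 C on a 48 hr fibroblast/mesothelial/ECM culture.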
Structure (SMILES),"activity change, negative = inhibition",outcome
Cc1ccn2c(Nc3ccc4c(c3)OCO4)c(-c3ccc(C)o3)nc2c1,inactive: -2.66%,
Cc1ccc(C(=O)NCCSc2c[nH]c3ccccc23)cc1C,inactive: -4.02%,
Cc1cccc(NC(=O)c2ccc(F)c(S(=O)(=O)NCc3ccc4c(c3)OCO4)c2)c1,,inactive
CCCN(CCC)C(=O)Cn1c(=O)n(-c2ccc(CC)cc2)c(=O)c2c3c(sc21)CCC3,inactive: -6.77%,
COc1ccc(-c2c(C)c3ccc(O)c(CN4CCCCC4C)c3oc2=O)cc1OC (centres undefined),inactive: -7.11%,
CCOC(=O)C1CCN(C(=O)c2ccc3c(=O)n4nc(Nc5ccccc5)sc4nc3c2)CC1,,inactive
COc1ccc(NC(=O)C2(S(=O)(=O)c3ccc(C)cc3)CC2)c(OC)c1,inactive: 0.641%,
CCN(C(=O)c1c(O)c2c(Cl)cccc2n(C)c1=O)c1ccccc1,inactive: 11.3%,
O=C(CSc1nccn1Cc1ccc(F)cc1)NC1CCCC1,inactive: 13.6%,
CCCOC(=O)c1ccc(NC(=O)C2CC(=O)N(c3ccc(C)cc3)C2)cc1 (centres undefined),inactive: 6.55%,
O=C(Nc1ccccc1F)C(c1ccccc1)N1Cc2ccccc2C1=O (centres undefined),,inactive
Cc1ccc(CN(C(=O)COc2cccc(Cl)c2)c2ccccn2)o1,inactive: 1.27%,
CCOc1ccc(NC(c2ccc(Cl)cc2)c2nnc(-c3cccc(F)c3)o2)cc1 (centres undefined),inactive: 3.67%,
CCSc1ncc(Cl)c(C(=O)Nc2ccc(S(=O)(=O)N3CCCCC3CC)cc2)n1 (centres undefined),,inactive
CCCCNC(=O)CSc1nc(-c2ccc(OC)cc2)cc(C(F)(F)F)n1,,inactive
Cc1ccc(C)c(-c2ccc(=O)n(C(C)C(=O)Nc3ccccc3C(F)(F)F)n2)c1 (centres undefined),inactive: -13.1%,
CCc1ccc(-n2nc(C)c3c(C(=O)Nc4ccc(Cl)cc4)cc(C)nc32)cc1,inactive: -2.92%,
CCC(=O)N1c2ccccc2CC1C(=O)NCCc1ccccc1OC (centres undefined),inactive: 1.64%,
CCCOc1ccccc1C(=O)N1CCCCC1CCN1CCCCC1 (centres undefined),inactive: 3.09%,
COc1ccc(C(=O)Nc2cc(-c3nc4ncccc4o3)ccc2C)cc1Br,inactive: -1.18%,
Cc1noc(-c2ccc(N(C)Cc3ccccc3)c([N+](=O)[O-])c2)n1,,inactive
Cc1ccc(OCC(=O)Nc2nnc(SCc3cc(=O)n4cc(C)ccc4n3)s2)cc1,,inactive
COC(=O)c1ccccc1NC(=O)CCn1c(=O)c2cccn2c2cccnc21,,inactive
COc1ccc(OC)c(-n2nnc(-c3nc(-c4ccc5c(c4)OCO5)no3)c2C)c1,inactive: -6.98%,
O=C(NC1CC(=O)N(c2cccc(F)c2)C1)c1ccc(S(=O)(=O)N2CCCCC2)cc1 (centres undefined),inactive: -2.93%,

Structure (SMILES),"activity change, negative = inhibition",outcome
COc1ccc(OCc2nc(-c3ccc(OC)c(OC)c3)no2)cc1,inactive: -13.1%,
CC(=O)Nc1ccc(NC(=O)c2ccc3c(c2)CCN3S(=O)(=O)c2ccc(Cl)cc2)cc1,inactive: -6.37%,
CCc1ccc(NS(=O)(=O)c2cc(Br)cc3c2N(C(C)=O)CC3)cc1,inactive: -10.7%,
COc1ccc(CCNc2oc(/C=C/c3ccc(OC)c(OC)c3)nc2C#N)cc1,inactive: -27.3%,
CCCc1nc2nc(C)c(NS(=O)(=O)c3ccc(C)c(C)c3)c(=O)n2[nH]1,inactive: -9.19%,
COc1cccc(NC(=O)CSc2nnc3[nH]c(=O)cc(-c4ccccc4)n23)c1,inactive: 1.63%,
CCOC(=O)C1CCCN(C(=O)c2ccc(C)c(NC(=O)c3nsc4ccccc34)c2)C1 (centres undefined),inactive: 3.02%,
CC(=O)Nc1c(C)nn(-c2ccccc2)c1N1CCC(C(=O)Nc2ccc(C)cc2Cl)CC1,inactive: 3.29%,
COc1cccc(-n2ccnc2SCC(=O)Nc2nc3ccc(C)cc3s2)c1,inactive: -2.27%,
Cc1ccc(NC(=O)Nc2nc3c(s2)CCCCCC3)cc1C,,inactive
Cc1ccc(Cn2c(C(=O)O)c(CNCCc3cccs3)c3ccc(C)cc32)cc1,inactive: -7.81%,
O=C(COc1ccc(Cl)cc1)Nc1ccc(O)c(-c2nc3ccccc3s2)c1,,inactive
CCN(C(=O)CSc1nc2ccccc2nc1Cc1cccc(OC)c1)c1cccc(C)c1,,inactive
O=C(NC1CC(=O)N(c2ccc(F)cc2)C1)c1ccc(S(=O)(=O)N2CCCC2)cc1 (centres undefined),inactive: 9.47%,
Cc1ccc2oc(-c3cc(NC(=O)Cc4ccccc4)ccc3Cl)nc2c1,,inactive
CCCCOc1ccc(C(=O)NCCS(=O)(=O)N2CCN(c3ccccc3OC)CC2)cc1,inactive: -11.1%,
CC(C)NCC(O)COc1ccc(CCOCC2CC2)cc1 (centres undefined),inactive: 28.1%,
CN(C)c1ccc(C(CNC(=O)c2ccccc2Cl)N2CCc3ccccc32)cc1 (centres undefined),,inactive
Cc1cc(Br)ccc1NC(=O)COc1cc(=O)n(C)c2ccccc12,,inactive
COc1ccccc1NC(=O)c1ccc2[nH]c(C)cc(=O)c2c1,inactive: 0.902%,
CCN(CC)S(=O)(=O)c1ccc2nc(NC(=O)c3ccccc3OC)sc2c1,inactive: 4.2%,
COc1cc2c(cc1OC)C(c1ccc(F)cc1)N(c1ccccc1)C(=O)C2 (centres undefined),,inactive
COc1cccc(CNC(=O)CSc2nc3ccccc3nc2Cc2ccccc2)c1,inactive: -20.2%,
Cc1ccccc1NC(=O)c1c(C)oc2ccc(O)c(CN3CCCC(C)C3)c12 (centres undefined),inactive: -2.46%,
